{"source": "paper PMC7819943", "about": "“Rice protein-binding microarrays: a tool to detect cis-acting elements near promoter regions in rice”", "note": "The other results are listed elsewhere or left out."}
{"molecular_target": "T1, OsWOX13 (Oryza sativa, UniProt Q5QMM3 1-267)", "T1 sequence": "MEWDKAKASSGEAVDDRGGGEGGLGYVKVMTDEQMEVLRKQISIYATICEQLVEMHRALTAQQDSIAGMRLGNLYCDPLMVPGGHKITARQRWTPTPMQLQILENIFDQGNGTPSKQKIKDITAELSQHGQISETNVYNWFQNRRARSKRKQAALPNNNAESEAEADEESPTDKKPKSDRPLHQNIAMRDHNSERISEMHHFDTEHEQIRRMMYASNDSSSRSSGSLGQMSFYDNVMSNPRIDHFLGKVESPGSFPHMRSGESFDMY", "test": "protein-binding microarray (RPBM); PBS, 2% BSA, 51.3 ng/ul salmon testes DNA, 50 uM zinc acetate, 200 nM TF, 25 C, 1 h; high values mean tight binding", "conditions": "protein: recombinant; tags: N-terminal polyhistidine and DsRed monomer fusion (pET32a); label: CyDye5-dUTP incorporated in the synthesized complementary strand; 3' TTTTT single-stranded linker to array surface; dsDNA, one strand shown", "summary_of_the_method": "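In PBS with 2% BSA, salmon testes DNA and 50 µM zinc acetate, 200 nM protein was incubated on a custom Agilent array at 25 °C for 1 h and then washed off. The array had been made double-stranded by primer extension with Cy5-dUTP and blocked with 2% BSA. The proteins were transcription factors fused N-terminally to polyhistidine and DsRed, expressed in E. coli BL21-CodonPlus and purified on Ni–NTA. The binding signal is per-feature fluorescence intensity (arbitrary units) from an Axon 4000B scanner.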"}
{"sequence": "GGGTAGATAGATATTAGGTAAAGGGACTCGGTAGAGAGAGCGGAGTCACCTAGTGCAG", "binding signal": "3150 fluorescence intensity (a.u.)"}
{"sequence": "TTTCTGATTTACGTGGCTTGTGAGTAGGGCGCCTCCTCATCGGAGTCACCTAGTGCAG", "binding signal": "8000 fluorescence intensity (a.u.)"}
{"sequence": "TACTAAGATAGATAGATAGTACATGTGATGCCAAGATGTTCGGAGTCACCTAGTGCAG", "binding signal": "3980 fluorescence intensity (a.u.)"}
{"sequence": "GTAATAAAATTGAACTTTAATTTACTCTACATCCAATTCACGGAGTCACCTAGTGCAG", "binding signal": "6140 fluorescence intensity (a.u.)"}
{"sequence": "ATAAATTGAGGTGAGGCCTCTCCTCACCTTCCTAAACACCCGGAGTCACCTAGTGCAG", "binding signal": "8040 fluorescence intensity (a.u.)"}
{"sequence": "AAAATTACATACTAATTACATATGTAAGTGAGGTGTAAATCGGAGTCACCTAGTGCAG", "binding signal": "13000 fluorescence intensity (a.u.)"}
{"sequence": "ACTAATAATAAAACTAATTACAGAATCCGTCAGTAAACCACGGAGTCACCTAGTGCAG", "binding signal": "14900 fluorescence intensity (a.u.)"}
{"sequence": "TGATTATCAATCTGACGATATCTGTAAGATGAAGCCTCTTCGGAGTCACCTAGTGCAG", "binding signal": "3310 fluorescence intensity (a.u.)"}
{"sequence": "TATGTCCTGATTAGTTCTGGTCTACTGGTATGCTGTTTGCCGGAGTCACCTAGTGCAG", "binding signal": "3980 fluorescence intensity (a.u.)"}
{"sequence": "CTGAAATAACTTAGCTAACTGATTCATCATTTCAGAAGTGCGGAGTCACCTAGTGCAG", "binding signal": "14500 fluorescence intensity (a.u.)"}
{"sequence": "TCTGATGATTCCGCTGTTTGTTCATCAGATTTCCCATTATCGGAGTCACCTAGTGCAG", "binding signal": "9220 fluorescence intensity (a.u.)"}
{"sequence": "CCTTAATGATAAACACGAAGAAAATTAAATACTCCCTCCCCGGAGTCACCTAGTGCAG", "binding signal": "15200 fluorescence intensity (a.u.)"}
{"sequence": "TTTGAGTTTTGACTGACAAGGATTTGCATTGCAAACTCGGCGGAGTCACCTAGTGCAG", "binding signal": "3940 fluorescence intensity (a.u.)"}
{"sequence": "ATATAATCATCTCTATGATTGCCTCTAGGGCATATCACTACGGAGTCACCTAGTGCAG", "binding signal": "33900 fluorescence intensity (a.u.)"}
{"sequence": "ATGTTATAATTGGATGAGAAGTATAGGTAAATGAGGAAATCGGAGTCACCTAGTGCAG", "binding signal": "12800 fluorescence intensity (a.u.)"}
{"sequence": "CCACACAATCAACGCCATGATTACATTGCACTTGTCGTATCGGAGTCACCTAGTGCAG", "binding signal": "23100 fluorescence intensity (a.u.)"}
{"sequence": "GTAAACAAAATGCGTAATCATGTCGCAACTTGATCAAGAGCGGAGTCACCTAGTGCAG", "binding signal": "6220 fluorescence intensity (a.u.)"}
{"sequence": "ATGTAATTAGCTCAAGCCAAAGACATCTAAACTAGCTACCCGGAGTCACCTAGTGCAG", "binding signal": "21400 fluorescence intensity (a.u.)"}
{"sequence": "CCTGACAGGGGATGTCATCTCACGCGCCGCATTCGGCAGCCGGAGTCACCTAGTGCAG", "binding signal": "18100 fluorescence intensity (a.u.)"}
{"sequence": "CTATTATTTTAATCAATATTCATTTCTGTGCAAGTGGCATCGGAGTCACCTAGTGCAG", "binding signal": "4260 fluorescence intensity (a.u.)"}
{"sequence": "AATCACGGATTAGAGCCCTAATCACGCCGCCCGCGTAATTCGGAGTCACCTAGTGCAG", "binding signal": "3450 fluorescence intensity (a.u.)"}
{"sequence": "TGCTTGGTGATTTAATTTATTAGACTATTATCCTTTTAGACGGAGTCACCTAGTGCAG", "binding signal": "14300 fluorescence intensity (a.u.)"}
{"sequence": "TCCTGTAACAGAATTGGAAAACCCAATCTGGCGACGGCTGCGGAGTCACCTAGTGCAG", "binding signal": "9790 fluorescence intensity (a.u.)"}
